PubChem BioAssay AID504832 (National Center for Advancing Translational Sciences (NCATS), 2011)
About 18,000 (5.8%) of roughly 310,000 compounds were called active. This list was built around the results that the source calls inconclusive (neither active nor inactive); the mix of calls is not that of the screen. Calls come from the whole dose curve; as a rule, active = well fitted inhibition curve with a large enough effect; inconclusive = small, poorly fitted or top-dose-only effect, or another doubt; inactive = no such curve, though single readings can be large or run the other way. Potencies of inconclusive entries are left out as doubtful fits.

Assay: Primary qHTS for delayed death inhibitors of the malarial parasite plastid, 48 hour incubation
Details: P. falciparum luciferase growth in erythrocytes; series mostly up to 28.7 µM
Outline: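 Growth was read as firefly luciferase luminescence after a 48 h, 37 C, 5% CO2 exposure of compounds to reporter-bearing P. falciparum cultures (0.1% parasitemia, 2% hematocrit final) in Albumax-supplemented RPMI 1640.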
Potency is the fitted concentration of half-maximal effect; tags give direction and shape of the fitted curve.

SMILES	Potency
COc1cccc(OCCn2cccc2/C=C2/C(=N)N3OC(C)=CC3=NC2=O)c1	inconclusive [inhibitor, single point]
CC(C)c1ccc(N2C(=O)NC(=O)/C(=C\c3cnc(-c4ccccc4)nc3)C2=O)cc1	inactive
COC(=O)c1ccc(/C=N\NC(=O)c2ccc(C)cc2Cl)cc1	inconclusive [inhibitor, full curve, poor fit]
CCOC(=O)C1=C(Nc2ccccc2)CC(C)(O)C(C(=O)OCC)C1c1ccc(Br)cc1 (stereo unspecified)	active: 14.7 µM
CCC(C)n1ncn(-c2ccc(N3CCN(c4ccc(OCC5COC(Cn6cncn6)(c6ccc(Cl)cc6Cl)O5)cc4)CC3)cc2)c1=O (stereo unspecified)	active: 3.38 µM
Cc1cc(N=NC(=O)c2ccccc2O)c2ccccc2c1O	inactive
CCOc1cc(N)c(Cl)cc1C(=O)NCC1CN(Cc2ccc(F)cc2)CCO1 (stereo unspecified)	active: 7.57 µM
CS(=O)(=O)N(CC(=O)NCCSCc1ccccc1)c1ccccc1Br	inactive
COc1ccccc1N(CC(=O)NCC1CCCO1)C(=O)CNS(=O)(=O)c1ccc(Cl)cc1 (stereo unspecified)	inconclusive [inhibitor, single point]
CCCCn1c(N)c(N(CC(C)C)C(=O)CSCc2cccc(C)c2)c(=O)[nH]c1=O	inconclusive [inhibitor, partial curve, poor fit]
O=C(O)/C(=C\c1cccs1)c1ccc(F)cc1	inactive
COc1cccc(-c2nnc(SCC(=O)N3CCCc4ccccc43)o2)c1	inactive
COc1ccc(Cc2nc3ccc(C(=O)N(C)C(C)c4nccs4)cc3o2)cc1 (stereo unspecified)	inconclusive [inhibitor, partial curve, poor fit]
Cc1ccc(S(=O)(=O)Nc2ccc3c(c2)C(=O)NC3=O)cc1[N+](=O)[O-]	inactive
O=C1C(Cl)=C(Nc2ccc3cn[nH]c3c2)C(=O)c2ccccc21	active: 11.7 µM
O=C(/C=C\Nc1ccc2c(c1)OCO2)c1cccs1	inactive
Cc1noc(C)c1COc1ccccc1C(=O)NCc1ccccc1Cl	inconclusive [inhibitor, partial curve]
Cc1nnc(N/N=C/c2ccccc2F)n1N	inactive
COc1ccc(NC(=O)CSc2ccc(-c3ccco3)nn2)c(OC)c1	inactive
COc1ccc(-n2nc3c(c2NC(=O)c2ccccc2S(=O)(=O)C(F)F)CS(=O)(=O)C3)cc1	inactive
CCOC(=O)c1c(C)[nH]c(C(=O)Cn2nnc(-c3ccccc3Cl)n2)c1C	inconclusive [inhibitor, single point]
